# Experimental data: the supplement of paper PMC11417369
# ± gives the standard deviation of the averaged measurements. The list shows a part of the results.
# Tested on: PfAP2-I AP2 domain 3 (GST-tagged)
# Assay: gcPBM binding intensity (ln(normalized median fluorescence intensity)); higher = stronger DNA binding
# Procedure, shortened: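 DNA-binding domains from P. falciparum, fused to GST and produced in E. coli, were put on an Agilent 4 × 180k double-stranded probe array for 1 h in 1× PBS holding 1% milk, 0.2 mg/ml BSA, 0.5% salmon testes DNA and 0.03% Triton X-100. Probes were primer-extended, 36 bp long and drawn from intergenic genomic regions, with negative controls included. After Alexa488 anti-GST antibody detection and a 488 nm scan, binding intensity was set as the highest Masliner-normalised natural-log median intensity across replicate spots of either probe orientation.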
row,Sequence,gcPBM binding intensity (ln)
1,TAATATTTTATTTTTGTTGTGGATCCAAAAAAAAAA [CACACA_negctrl_site846],7.76 ± 0.57
2,CTATATATTTAAAAAAGTACAAATATAAAAATATAT [XGTACX_site676],7.92 ± 0.38
3,AAGATCATATATTCGTGGGTATAAAAAGTTATAATA [TGCATGCA_negctrl_site439],7.88 ± 0.32
4,AGAAATATGTTGAAGCATTTATAATGTAGATATAAG [GTGCAC_negctrl_site640],7.74 ± 0.47
5,AAAAAAAAAAAAAATACACACAAACACAAATTAAAT [CACACA_site5982],8.05 ± 0.54
6,GTAATATTATAATATACACACATAGAATATATATAT [CACACA_site413],8.74 ± 0.028
7,TTTATTATCAAGATTGCACACCCTTATGAACTTTTT [CACACA_site3166],8.7 ± 0.37
8,TAATTTACACCTACGTGTACACACAAAAATATGTTT [XGTACX_site1868],8.9 ± 0.28
9,ACAAAAAAAAAGGAAACACACAAAAAAAAAAAATAA [CACACA_site3523],7.55 ± 0.63
10,ACTATATTTCTATAATGTACAAAAATAAATCATATG [XGTACX_site3337],7.73 ± 0.37
11,ACCTATAAAAAATAATGTACAGGAAGAAATATAAGG [XGTACX_site5822],8.16 ± 0.63
12,TAGGTCATATTTTTTGCACACAAAAAAAAATATAAA [CACACA_site3380],8.745 ± 0.078
13,CACCTCAATATTCACATACACACAATATCATCGAAG [CACACA_site1675],7.96 ± 0.5
14,TTTTTCCAATCAGATGCATGTTACTATATTTGGTTC [TGCATGCA_site52],7.74 ± 0.96
15,TGTATAAGGTTTTTACGTTTTGAAGGATGTATTGTT [CACACA_negctrl_site1245],7.68 ± 0.46
16,TATCATTTTGAAGTATGTACTTATTTTATTAAAATA [XGTACX_site7784],7.96 ± 0.16
17,TAAATACATAAATACACACACATATATATATATATA [CACACA_site5549],9.47 ± 0.66
18,ATTATATTAAAATATTCACACACTAACGTAAATCAT [CACACA_site8887],7.51 ± 0.57
19,TACATAATTTTAATCACACACAAACAAACACATACA [CACACA_site194],8.305 ± 0.064
20,GTAAGTATATATAATAGTACATATATATTAATATAT [XGTACX_site4314],7.7 ± 0.48
21,TTTTGTTCATACAAATTGGAACAAGACAAAAATATA [XGTACX_negctrl_site327],7.72 ± 0.51
22,GGGAGGATATTACACAGTACCCAGGAAATCTACGGA [XGTACX_site4874],8.16 ± 0.13

row,Sequence,gcPBM binding intensity (ln)
1,TATGTTCCGAAGGTTGTACACACATAGAAATATACA [CACACA_site9285],7.91 ± 0.47
2,TTTTTTTTTTTTGTAACATGCAAACAACAATATGGG [TGCATGCA_site695],8.28 ± 0.48
3,ATGTAATTGTATACATGTACGCAAACACAAAAGCAT [XGTACX_site6771],8.19 ± 0.42
4,AAGGAAAAAACAAATACACACAAAAACGCATTATAA [CACACA_site3466],7.87 ± 0.71
5,ATGAACTTATTTTAGTGTACTAAAAAATATGACTTC [XGTACX_site470],8.21 ± 0.35
6,CATATAATAAATAATACACACATATTGGAAATATAT [CACACA_site3212],7.8 ± 0.48
7,AAAGGTATATATGTGTGTACATATATATATATATAT [XGTACX_site5629],9.09 ± 0.54
8,CACATTTCTGTAGTTGCATGTAGAAAAAAAAAAAAA [TGCATGCA_site810],8.14 ± 0.7
9,TTTTGAGAAAAAATAAAATAATAAATAAAAATACAT [XGTACX_negctrl_site66],7.78 ± 0.58
10,AATACAATTGAAAATTGTACTTTGTTTTTTATAAAT [XGTACX_site4080],7.45 ± 0.47
11,GATTTATATTTTAAAAGTACAAGTTAAAATAAAAGT [XGTACX_site7059],8.21 ± 0.35
12,TTTGATTTTAATGTGTGTACACATTTATTTATATAA [XGTACX_site4806],8 ± 0.042
13,ATATAATATCTGTATACACACATATTATATAATATT [CACACA_site5940],7.86 ± 0.51
14,AATATAAGATTATTATGTACATAATAAATATGTATT [XGTACX_site4773],7.86 ± 0.23
15,ATATAAGTATAATTATGTACTTATACTTATATAAAT [XGTACX_site5585],7.57 ± 0.26
16,GGTCATCATCGGTATTGTACAAAAATGTGAAAATTA [XGTACX_site639],8.06 ± 0.37
17,TTTTTTTTTTTGGTTACACACATTTGTATATTCTCA [CACACA_site134],8.24 ± 0.66
18,CATATTAATACAGAATGTACGGATAACAAACTGTTT [XGTACX_site7935],7.58 ± 0.64
19,CCATAACTCCTATGCACACATAAATATTACAGAGAT [CACACA_site5984],9.04 ± 0.092
20,TTTTATTTAGGAGGTGCATGTAATACGGAACATAAT [TGCATGCA_site827],9.56 ± 0.22
21,ATTAGTTTATATGAATGATTTTTCTTTTTTTTTTTT [CACACA_negctrl_site88],7.31 ± 0.51
22,TTACTATTTCACTGTGCATGCAACAAAAATCTATCT [TGCATGCA_site808],9.38 ± 0.57

row,Sequence,gcPBM binding intensity (ln)
1,ATATTTTGGGTGTTGTTTTTTTTTAAAACTCTTTAA [CACACA_negctrl_site1255],8.04 ± 0.59
2,AAAAAAAAAAAAAATAATAAATAAATAAATAAATAA [GTGCAC_negctrl_site505],8.41 ± 0.85
3,CGTAGCCGCACTAACACACACAAATATACGCAATCA [CACACA_site2898],9.13 ± 0.2
4,AAAAATAAAAAAAAATTAAAATATATATATTTTGTT [TGCATGCA_negctrl_site102],7.49 ± 0.67
5,AGGAAAAAAAGTAGCACACAAATATTTATAATATAT [CACACA_site2437],7.88 ± 0.64
6,AACATATTTATATACACACACATATTTATATGAAAT [CACACA_site6268],7.82 ± 0.56
7,GAGAGGATACATACATGTACATAAATATTTTATTTT [XGTACX_site5129],7.86 ± 0.37
8,TTTTTATAACAAAGTATTTAAATAATTTATACTAAT [TGCATGCA_negctrl_site104],7.47 ± 0.47
9,GAACAAATTACAAGTTGTACTTTATGTAAATTATTA [XGTACX_site5304],7.65 ± 0.3
10,ATGCGTTCATACATACATACATACATACAATTTGTA [TGCATGCA_negctrl_site50],7.91 ± 0.6
11,AACATTTATATTTAAGTGCAGATGCTGTAATTTAGA,8.46 ± 0.26
12,TTTTGAATTAAACAAGCATGCTTTATTTACTTCTTA [TGCATGCA_site289],7.59 ± 0.86
13,TAATTCATCCTATGCACACACAATACCAAAATGTGC [CACACA_site4269],8.95 ± 0.16
14,TAATTTATTAATAATTGTACAGATATTATACTTAAA [XGTACX_site8947],7.46 ± 0.32
15,TGCTCATGAGGTCAGAGTACAAAATAGTAAATGTAT [XGTACX_site2973],7.93 ± 0.8
16,TTTTTTTTTTTTTTTCTTTTTTATTCTCACAAAAAA [CACACA_negctrl_site1790],8.2 ± 0.74
17,TTTATTTTTATTTTTGTGCACGGGATTAAATAAAAG [GTGCAC_site9842],11.22 ± 0.092
18,ATATTTTTTCTGAACGGTACAGAATTTTTCAAGATT [XGTACX_site484],7.78 ± 0.64
19,TATATATATCTGTATACACACATATGTATGTTATGT [CACACA_site6090],8.01 ± 0.64
20,CCTTTTTCTAATGGATGTACTTATTATATACATTAT [XGTACX_site281],7.86 ± 0.54
21,AAGAAAAGTAAATATGCATGTAGGGTAGGTTATTTT [TGCATGCA_site46],8.31 ± 0.93
22,AAATTTATATATAGTTGTACAAAAATATGTTTCGTA [XGTACX_site4801],7.78 ± 0.44

row,Sequence,gcPBM binding intensity (ln)
1,TTATTTTATCACACATGTACATATGTTAATTTTTTT [XGTACX_site5598],8.11 ± 0.53
2,AAAATAAAAAGAAATAAATTAACAGTAAGGAAAAAA [CACACA_negctrl_site1105],7.86 ± 0.8
3,TGAATAATCAATAGTACACACATATAAATATATATA [CACACA_site2813],8.01 ± 0.65
4,GCACGAAACAATGTATATATATATATATATATATAT [GTGCAC_negctrl_site412],9.52 ± 0.52
5,TTCTTTATGGAAGTGTAAAAAAAGAAATACTTTTTT [CACACA_negctrl_site915],7.44 ± 0.57
6,ATATAACAGAAACACACACACATATATATATATTAT [CACACA_site4140],7.86 ± 0.5
7,TATTTTTATATATAATCACACATTGGAATGTTCTAA [CACACA_site5540],7.71 ± 0.61
8,ATAAATGATAGTAAAAGTACACAAAATGTTTTAAAA [XGTACX_site1623],7.92 ± 0.4
9,ATTACATGTATACATGTCAACACGTATAAAAAAAAA [CACACA_negctrl_site1154],7.83 ± 0.77
10,ATTATAAATATATTTTGTACTTAAAAGGAAAAAAAA [XGTACX_site55],7.66 ± 0.28
11,TACACAAACAGACACACACACACACGCGCACAAAAA [CACACA_site7192],8.48 ± 0.51
12,AATAAGCATAGACACACACACAAAAAAAAAAAAAAA [CACACA_site6476],7.99 ± 0.54
13,AATAAATAGAGGAAATGTACATATAAAAATAATTTC [XGTACX_site2454],7.84 ± 0.76
14,GATTATCTTCAAGTATGTACACACTATATATAATAA [XGTACX_site5108],8.09 ± 0.36
15,TTAACATCTTCGTTGACACACAAAAAAAAAAATAAT [CACACA_site1819],7.8 ± 0.5
16,ATGTAGACAACATATGAACACACAAAATATTTTTTT [CACACA_site8955],7.72 ± 0.56
17,TTAACAAAATTTTTAACACACAAAAAAAAAAAAAAA [CACACA_site1828],8.2 ± 0.8
18,CCAAAATTTATAAATTGTACATATTTTTAAATTCTT [XGTACX_site833],7.48 ± 0.51
19,ATAAAAGAATTAAATAATCAAAATGATTATTTTATA [CACACA_negctrl_site466],6.97 ± 0.38
20,GATAAATAATAATAAGGTACACATAAAATATTCCTT [XGTACX_site2963],7.62 ± 0.4
21,GGTATAATTCATATAACACACATTTCAATGTTAAAA [CACACA_site2172],7.93 ± 0.38
